The values that follow come from the supplement of paper PMC10369915.

This is one part of the list. Cut-off read from the data, not from the text of the source: active = 3.2 or more and inactive = the rest. The signal is at background level for most entries.
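Note: displayed peptides selected on beads carrying the immobilized SH2 domain, with library peptides lacking any tyrosine serving as negative controls.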

In one assay the target is SHP2 C-SH2 domain E139D. Nature of the assay: enrichment score (SH2-bound / input frequency) (ratio); bacterial display of known human phosphotyrosine sites (pTyr-Var adds point mutants) read by sequencing; higher = stronger binding; tyrosines were phosphorylated by kinases first. The note with it: peptide library: Human pTyr.
On to WSLPNPEYYTLRYAD [ELMO2_HUMAN_48], for which the enrichment score was inactive: 1.19.

Consider DSDEPLVYFYDDVTT [ACSL1_HUMAN_84], for which the enrichment score is inactive: 1.02.

On to SPTDSNFYRALMDEE [EGFR_HUMAN_998], for which the enrichment score was inactive: 0.979.

TAIQAAGYPDKVVIG [ENOB_HUMAN_236]: the enrichment score was inactive: 0.738.

Take EDDPEAAYTTRGGKI [EPHA3_HUMAN_779]: the enrichment score is inactive: 0.787.

Take SKGYNDDYYEESYFT [EMD_HUMAN_94]: the enrichment score is inactive: 0.959.

Consider KLLLLRGYAFNHSAD [ACTR2_HUMAN_202], for which the enrichment score is inactive: 1.19.

WSLPNPEYATLRAAD [ELMO2_HUMAN_48_YA]: the enrichment score was active: 3.57.

Take KALANMNYVHRDLAA [EPHA2_HUMAN_735_YA]: the enrichment score was inactive: 0.635.

In the case of KYLANMNYVHRDLAA [EPHA2_HUMAN_735], the enrichment score is inactive: 0.985.

On to KGANDDAYEESAFTT [EMD_HUMAN_95_YA], for which the enrichment score is inactive: 0.831.

On to VALLSQLYHSPARRF [ELAVL1_HUMAN_200], for which the enrichment score was inactive: 0.637.

On to KKEDALLYQSKGAND [EMD_HUMAN_85_YA], for which the enrichment score was inactive: 0.934.

Take VAGHSLGYGFVNAVT [ELAVL1_HUMAN_63_YA]: the enrichment score is inactive: 0.95.

On to KGYNDDYYEESYFTT [EMD_HUMAN_95], for which the enrichment score was inactive: 1.11.

Turning to TAVGNPEYLNTVQPT [EGFR_HUMAN_1138], the enrichment score was inactive: 0.426.

As to KLPGLRTYVDPHTAE [EPHA3_HUMAN_596_YA], the enrichment score is inactive: 1.18.

Regarding ISLDNPDYQQDFFPK [EGFR_HUMAN_1172], the enrichment score is inactive: 0.696.

For the next assay, the target named is SHP2 C-SH2 domain wild-type. The assay is described as above. The conditions noted are these: peptide library: Human pTyr.
Regarding WSLPNPEYYTLRYAD [ELMO2_HUMAN_48], the enrichment score was inactive: 1.15.

Consider DSDEPLVYFYDDVTT [ACSL1_HUMAN_84], for which the enrichment score was inactive: 0.944.

Regarding SPTDSNFYRALMDEE [EGFR_HUMAN_998], the enrichment score was inactive: 0.991.

Take TAIQAAGYPDKVVIG [ENOB_HUMAN_236]: the enrichment score was inactive: 0.579.

In the case of EDDPEAAYTTRGGKI [EPHA3_HUMAN_779], the enrichment score is inactive: 0.607.

Regarding SKGYNDDYYEESYFT [EMD_HUMAN_94], the enrichment score was inactive: 1.26.

As to KLLLLRGYAFNHSAD [ACTR2_HUMAN_202], the enrichment score is inactive: 1.08.

With WSLPNPEYATLRAAD [ELMO2_HUMAN_48_YA], the enrichment score is active: 7.29.

As for KALANMNYVHRDLAA [EPHA2_HUMAN_735_YA], the enrichment score is inactive: 0.486.

Turning to KYLANMNYVHRDLAA [EPHA2_HUMAN_735], the enrichment score is inactive: 0.922.

Turning to KGANDDAYEESAFTT [EMD_HUMAN_95_YA], the enrichment score is inactive: 0.56.

As to VALLSQLYHSPARRF [ELAVL1_HUMAN_200], the enrichment score is inactive: 0.601.

For the molecule KKEDALLYQSKGAND [EMD_HUMAN_85_YA], the enrichment score is inactive: 0.811.

Regarding VAGHSLGYGFVNAVT [ELAVL1_HUMAN_63_YA], the enrichment score was inactive: 0.804.

For the molecule KGYNDDYYEESYFTT [EMD_HUMAN_95], the enrichment score was inactive: 0.992.

As for TAVGNPEYLNTVQPT [EGFR_HUMAN_1138], the enrichment score was inactive: 0.591.

As for KLPGLRTYVDPHTAE [EPHA3_HUMAN_596_YA], the enrichment score is inactive: 0.948.

Regarding ISLDNPDYQQDFFPK [EGFR_HUMAN_1172], the enrichment score is inactive: 0.571.

A further assay deals with SHP2 N-SH2 domain L43F. Described as above. The conditions noted are these: peptide library: Human pTyr.
As for WSLPNPEYYTLRYAD [ELMO2_HUMAN_48], the enrichment score was inactive: 1.18.

In the case of DSDEPLVYFYDDVTT [ACSL1_HUMAN_84], the enrichment score is inactive: 1.03.

SPTDSNFYRALMDEE [EGFR_HUMAN_998]: the enrichment score is inactive: 0.877.

Consider TAIQAAGYPDKVVIG [ENOB_HUMAN_236], for which the enrichment score is inactive: 0.604.

On to EDDPEAAYTTRGGKI [EPHA3_HUMAN_779], for which the enrichment score was inactive: 0.723.

As to SKGYNDDYYEESYFT [EMD_HUMAN_94], the enrichment score is inactive: 0.975.

For the molecule KLLLLRGYAFNHSAD [ACTR2_HUMAN_202], the enrichment score is inactive: 1.16.

Consider WSLPNPEYATLRAAD [ELMO2_HUMAN_48_YA], for which the enrichment score was inactive: 0.728.

With KALANMNYVHRDLAA [EPHA2_HUMAN_735_YA], the enrichment score is inactive: 0.419.

In the case of KYLANMNYVHRDLAA [EPHA2_HUMAN_735], the enrichment score is inactive: 1.37.

For the molecule KGANDDAYEESAFTT [EMD_HUMAN_95_YA], the enrichment score is inactive: 0.935.

Take VALLSQLYHSPARRF [ELAVL1_HUMAN_200]: the enrichment score is inactive: 0.705.

Regarding KKEDALLYQSKGAND [EMD_HUMAN_85_YA], the enrichment score was inactive: 0.805.

Consider VAGHSLGYGFVNAVT [ELAVL1_HUMAN_63_YA], for which the enrichment score was inactive: 0.897.

For KGYNDDYYEESYFTT [EMD_HUMAN_95], the enrichment score was inactive: 1.27.

Consider TAVGNPEYLNTVQPT [EGFR_HUMAN_1138], for which the enrichment score is inactive: 0.683.

For KLPGLRTYVDPHTAE [EPHA3_HUMAN_596_YA], the enrichment score is inactive: 1.14.

As for ISLDNPDYQQDFFPK [EGFR_HUMAN_1172], the enrichment score was inactive: 0.628.

The target in a further assay is SHP2 N-SH2 domain T42A. The description is as above. The note with it: peptide library: Human pTyr.
As for WSLPNPEYYTLRYAD [ELMO2_HUMAN_48], the enrichment score is inactive: 1.16.

With DSDEPLVYFYDDVTT [ACSL1_HUMAN_84], the enrichment score is inactive: 0.968.

Turning to SPTDSNFYRALMDEE [EGFR_HUMAN_998], the enrichment score was inactive: 0.947.

Turning to TAIQAAGYPDKVVIG [ENOB_HUMAN_236], the enrichment score is inactive: 0.673.

In the case of EDDPEAAYTTRGGKI [EPHA3_HUMAN_779], the enrichment score was inactive: 0.645.

SKGYNDDYYEESYFT [EMD_HUMAN_94]: the enrichment score was inactive: 0.967.

As for KLLLLRGYAFNHSAD [ACTR2_HUMAN_202], the enrichment score is inactive: 0.996.

As to WSLPNPEYATLRAAD [ELMO2_HUMAN_48_YA], the enrichment score is inactive: 0.662.

For the molecule KALANMNYVHRDLAA [EPHA2_HUMAN_735_YA], the enrichment score was inactive: 0.53.

Turning to KYLANMNYVHRDLAA [EPHA2_HUMAN_735], the enrichment score is inactive: 1.09.

For KGANDDAYEESAFTT [EMD_HUMAN_95_YA], the enrichment score was inactive: 0.648.

As for VALLSQLYHSPARRF [ELAVL1_HUMAN_200], the enrichment score is inactive: 0.772.

In the case of KKEDALLYQSKGAND [EMD_HUMAN_85_YA], the enrichment score is inactive: 0.872.

For VAGHSLGYGFVNAVT [ELAVL1_HUMAN_63_YA], the enrichment score was inactive: 0.882.

KGYNDDYYEESYFTT [EMD_HUMAN_95]: the enrichment score was inactive: 1.02.

Take TAVGNPEYLNTVQPT [EGFR_HUMAN_1138]: the enrichment score is inactive: 0.6.

For KLPGLRTYVDPHTAE [EPHA3_HUMAN_596_YA], the enrichment score was inactive: 0.995.

In the case of ISLDNPDYQQDFFPK [EGFR_HUMAN_1172], the enrichment score was inactive: 0.829.

The target in another assay is SHP2 N-SH2 domain T52S. The assay is described as above. The conditions noted are these: peptide library: Human pTyr.
WSLPNPEYYTLRYAD [ELMO2_HUMAN_48]: the enrichment score was inactive: 1.21.

On to DSDEPLVYFYDDVTT [ACSL1_HUMAN_84], for which the enrichment score was inactive: 1.2.

Regarding SPTDSNFYRALMDEE [EGFR_HUMAN_998], the enrichment score was inactive: 1.26.

For the molecule TAIQAAGYPDKVVIG [ENOB_HUMAN_236], the enrichment score is inactive: 0.744.

As for EDDPEAAYTTRGGKI [EPHA3_HUMAN_779], the enrichment score is inactive: 0.664.

On to SKGYNDDYYEESYFT [EMD_HUMAN_94], for which the enrichment score is inactive: 1.

KLLLLRGYAFNHSAD [ACTR2_HUMAN_202]: the enrichment score was inactive: 1.2.

WSLPNPEYATLRAAD [ELMO2_HUMAN_48_YA]: the enrichment score was inactive: 0.758.

As to KALANMNYVHRDLAA [EPHA2_HUMAN_735_YA], the enrichment score was inactive: 0.53.

For the molecule KYLANMNYVHRDLAA [EPHA2_HUMAN_735], the enrichment score was inactive: 1.01.

With KGANDDAYEESAFTT [EMD_HUMAN_95_YA], the enrichment score was inactive: 0.787.

For VALLSQLYHSPARRF [ELAVL1_HUMAN_200], the enrichment score is inactive: 0.633.

For KKEDALLYQSKGAND [EMD_HUMAN_85_YA], the enrichment score is inactive: 0.983.

For the molecule VAGHSLGYGFVNAVT [ELAVL1_HUMAN_63_YA], the enrichment score is inactive: 0.809.

KGYNDDYYEESYFTT [EMD_HUMAN_95]: the enrichment score was inactive: 0.866.

Regarding TAVGNPEYLNTVQPT [EGFR_HUMAN_1138], the enrichment score was inactive: 0.605.

In the case of KLPGLRTYVDPHTAE [EPHA3_HUMAN_596_YA], the enrichment score is inactive: 1.03.

Consider ISLDNPDYQQDFFPK [EGFR_HUMAN_1172], for which the enrichment score is inactive: 0.615.

A further assay deals with SHP2 N-SH2 domain wild-type. The description is as above. The conditions noted are these: peptide library: Human pTyr.
Consider WSLPNPEYYTLRYAD [ELMO2_HUMAN_48], for which the enrichment score is inactive: 1.15.

Regarding DSDEPLVYFYDDVTT [ACSL1_HUMAN_84], the enrichment score was inactive: 1.05.

As to SPTDSNFYRALMDEE [EGFR_HUMAN_998], the enrichment score is inactive: 1.26.

Take TAIQAAGYPDKVVIG [ENOB_HUMAN_236]: the enrichment score is inactive: 0.917.

Regarding EDDPEAAYTTRGGKI [EPHA3_HUMAN_779], the enrichment score was inactive: 0.689.

With SKGYNDDYYEESYFT [EMD_HUMAN_94], the enrichment score is inactive: 1.13.

For the molecule KLLLLRGYAFNHSAD [ACTR2_HUMAN_202], the enrichment score is inactive: 1.28.

As to WSLPNPEYATLRAAD [ELMO2_HUMAN_48_YA], the enrichment score was inactive: 0.589.

For the molecule KALANMNYVHRDLAA [EPHA2_HUMAN_735_YA], the enrichment score was inactive: 0.398.

For the molecule KYLANMNYVHRDLAA [EPHA2_HUMAN_735], the enrichment score was inactive: 1.11.

Take KGANDDAYEESAFTT [EMD_HUMAN_95_YA]: the enrichment score was inactive: 0.692.

For the molecule VALLSQLYHSPARRF [ELAVL1_HUMAN_200], the enrichment score is inactive: 0.871.

For the molecule KKEDALLYQSKGAND [EMD_HUMAN_85_YA], the enrichment score is inactive: 0.976.

On to VAGHSLGYGFVNAVT [ELAVL1_HUMAN_63_YA], for which the enrichment score is inactive: 0.929.

As to KGYNDDYYEESYFTT [EMD_HUMAN_95], the enrichment score was inactive: 1.15.

With TAVGNPEYLNTVQPT [EGFR_HUMAN_1138], the enrichment score was inactive: 0.541.

Turning to KLPGLRTYVDPHTAE [EPHA3_HUMAN_596_YA], the enrichment score is inactive: 1.32.

Regarding ISLDNPDYQQDFFPK [EGFR_HUMAN_1172], the enrichment score is inactive: 0.637.
